# Experimental data taken from PubChem BioAssay (NCATS).
# “And” between values parts separate entries of the source, which are not always exact repeats. Identical values can stand only once. Inconclusive results, whose numbers are uncertain, are shown with a selection of clear calls. Potencies beside an inconclusive call are fits to weak or partial responses and may not hold up. The source made the active and inactive calls. The call rests on the fitted dose curve; in most records, active means well fitted curve in the direction sought with a large enough effect; inconclusive means small, poorly fitted or top-dose-only effect, or another doubt; inactive means no such curve, though single readings can be large; an effect the other way counts as inactive or inconclusive.
# Experiments:
# [1] = qHTS of pediatric cancer cell lines to identify multiple opportunities for drug repurposing: Primary screen for RD cells (AID 1347104); further: nearly all actives have a fitted effect of over 55% in size
# How it was run: (§1)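 Viability was measured as metabolically active cells after 48 hours of treatment, read by CellTiter-Glo luminescence. Compounds were tested at multiple final concentrations, giving concentration-response curves.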
# [2] = qHTS of pediatric cancer cell lines to identify multiple opportunities for drug repurposing: Primary screen for MG 63 (6-TG R) cells (AID 1347105); settings: MG 63 (6-TG R) viability, CellTiter-Glo, 48 h; activity change, negative = cytotoxic: at 46 µM (top of the series) unless noted; further: nearly all actives have a fitted effect of over 50% in size; on activity change, negative = cytotoxic: on the % scale 0 is the no-effect control and ±100 the full control effect
# How it was run: as §1
# [3] = qHTS of pediatric cancer cell lines to identify multiple opportunities for drug repurposing: Primary screen for Rh30 cells (AID 1347107); further: nearly all actives have a fitted effect of over 75% in size; on activity change, negative = cytotoxic: on the % scale 0 is the no-effect control and ±100 the full control effect
# How it was run: (§2)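 Cells (500-1,000/well) in growth media were settled 5 h at 37 degrees C, then given compounds for 48 h. Viability was read as CellTiter-Glo luminescence. Primary runs used MIPE at 11 points (0.78 nM-46 µM) and NPC at 8 points (0.59 nM-46 µM); follow-ups used 11 points.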
# [4] = qHTS of pediatric cancer cell lines to identify multiple opportunities for drug repurposing: Primary screen for Rh41 cells (AID 1347108); further: nearly all actives have a fitted effect of over 70% in size;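 on activity change, negative = cytotoxic: luminescence drop marks cytotoxic hits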
# How it was run: as §1
# [5] = qHTS of pediatric cancer cell lines to identify multiple opportunities for drug repurposing: Confirmatory screen for NB1643 cells (AID 1347109); settings: NB1643 neuroblastoma cell viability; activity change, negative = cytotoxic: at 45.9 µM (top of the series) unless noted; further: nearly all actives have a fitted effect of over 45% in size
# How it was run: as §2
# [6] = qHTS of pediatric cancer cell lines to identify multiple opportunities for drug repurposing: Confirmatory screen for A673 cells (AID 1347110);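 further: cells exposed to compound for 48 h before the viability read; nearly all actives have a fitted effect of over 65% in size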
# How it was run: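 Cells plated at 500-1,000/well were treated five hours later with multi-point dilutions up to 46 µM final. After two days, CellTiter-Glo was added and luminescence read.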
# [7] = qHTS of pediatric cancer cell lines to identify multiple opportunities for drug repurposing: Confirmatory screen for BT-12 cells (AID 1347112); further: nearly all actives have a fitted effect of over 55% in size
# How it was run: as §2
# [8] = qHTS of pediatric cancer cell lines to identify multiple opportunities for drug repurposing: Primary screen for control Hh wild type fibroblast cells (AID 1347106); further: nearly all actives have a fitted effect of over 55% in size
# How it was run: as §2
# Potency means the concentration at half of the fitted maximal effect; tags describe the fitted curve by direction and shape.
compound,measurement,setting,value
C[C@]12CC[C@H]3[C@@H](CCC4=CC(=O)CC[C@@]43C)[C@H]1CC[C@H]2OC(=O)CCC1CCCC1,Potency,[1],"inconclusive: 8.33 µM [cytotoxic, partial curve]"
CC[C@H]1C=CC=CC[C@@H](C)[C@H](O)[C@@](C)(O)C(=O)[C@@H](C)[C@H](O)[C@@H](C)C(=O)[C@@H](C)[C@H](O)[C@@H](C)C=CC(=O)O[C@@H]2[C@@H](C)[C@H](CC1)O[C@]1(CC[C@H](C)[C@H](C[C@@H](C)O)O1)[C@H]2C,Potency,[1],active: 23.5 µM
same,Potency,[2],"inconclusive: 37.2 µM [cytotoxic, single point]"
same,Potency,[3],inactive
same,Potency,[4],"inconclusive: 0.0053 µM [cytotoxic, full curve, poor fit]"
same,Potency,[5],"inconclusive: 1.04 µM [cytotoxic, full curve]"
same,Potency,[6],"inconclusive: 26.1 µM [cytotoxic, single point]"
same,Potency,[7],"inconclusive: 0.369 µM [cytotoxic, full curve]"
O=C(Nc1ccc(Br)cc1)c1cc(Br)cc(Br)c1O,Potency,[1],"inconclusive: 26.6 µM [cytotoxic, single point]"
same,Potency,[2],active: 33.5 µM
same,Potency,[3],"inconclusive: 18.8 µM [cytotoxic, single point]"
same,Potency,[4],"inconclusive: 15 µM [cytotoxic, single point]"
CC(C)[C@]12O[C@@H]1[C@@H]1O[C@]13[C@]1(O[C@H]1C[C@@H]1C4=C(CC[C@@]13C)C(=O)OC4)[C@H]2O,Potency,[1],active: 0.001 µM
same,"activity change, negative = cytotoxic",[2],inconclusive: -71.3%
same,Potency,[4],active: 52.6 µM
same,Potency,[5],"inconclusive: 0.0737 µM [cytotoxic, full curve]"
same,Potency,[7],active: 0.0369 µM
COc1ccc(Cc2nccc3cc(OC)c(OC)cc23)cc1OC,Potency,[1],"inconclusive: 9.44 µM [cytotoxic, partial curve, poor fit] and inconclusive: 33.2 µM [cytotoxic, single point]"
same,Potency,[2],"inconclusive: 18.7 µM [cytotoxic, partial curve]"
same,Potency,[4],"inconclusive: 18.8 µM [cytotoxic, single point] and inconclusive: 14.8 µM [cytotoxic, partial curve]"
C[C@]12CC[C@H]3[C@@H](CC[C@@]45O[C@H]4C(O)=C(C#N)C[C@]35C)[C@H]1CC[C@H]2O,Potency,[1],active: 29.6 µM
same,Potency,[2],"inconclusive: 37.2 µM [cytotoxic, single point]"
same,Potency,[3],"inconclusive: 18.7 µM [cytotoxic, partial curve]"
same,Potency,[4],active: 20.9 µM
CN1CC[C@]23c4c5ccc(O)c4O[C@H]2[C@@H](O)C=C[C@H]3[C@H]1C5,Potency,[1],"inconclusive: 60.5 µM [cytotoxic, single point]"
same,Potency,[2],inactive
same,Potency,[4],"inconclusive: 21.5 µM [cytotoxic, partial curve]"
COC(=O)[C@@H](N)CCCN=C(N)N[N+](=O)[O-],Potency,[1],"inconclusive: 46.9 µM [cytotoxic, single point]"
same,Potency,[8],"inconclusive: 37.2 µM [cytotoxic, single point]"
same,Potency,[4],inactive
CCCCCCCCCCCC[N+](C)(C)CCOc1ccccc1,Potency,[1],active: 23.7 µM
same,Potency,[2],"inconclusive: 26.6 µM [cytotoxic, single point]"
same,Potency,[3],"inconclusive: 23.7 µM [cytotoxic, single point]"
same,Potency,[7],"inconclusive: 29.3 µM [cytotoxic, single point]"
O=c1[nH]c2ccccc2n1C1CCN(Cc2ccc(-c3[nH]c4cc5ncnc5cc4nc3-c3ccccc3)cc2)CC1,Potency,[1],"inconclusive: 6.62 µM [cytotoxic, partial curve]"
same,Potency,[2],"inconclusive: 5.9 µM [cytotoxic, partial curve, poor fit]"
same,Potency,[3],"inconclusive: 13.2 µM [cytotoxic, partial curve]"
same,Potency,[4],"inconclusive: 5.9 µM [cytotoxic, partial curve]"
COc1ccc(N(C(=O)Oc2c(C)cccc2C)c2ccnc(Nc3ccc(N4CCN(C)CC4)cc3)n2)c(OC)c1,Potency,[1],"inconclusive: 2.96 µM [cytotoxic, full curve]"
same,Potency,[8],"inconclusive: 23.5 µM [cytotoxic, single point]"
same,Potency,[4],inactive
N#Cc1nn(-c2c(Cl)cc(C(F)(F)F)cc2Cl)c(N)c1S(=O)C(F)(F)F (centres undefined),Potency,[1],"inconclusive: 21.1 µM [cytotoxic, partial curve, poor fit]"
same,Potency,[2],"inconclusive: 33.5 µM [cytotoxic, single point]"
same,Potency,[4],"inconclusive: 13.3 µM [cytotoxic, partial curve, poor fit]"
